Measured values from PubChem BioAssay AID1347055 (National Center for Advancing Translational Sciences (NCATS), 2019).
Where “and” joins values, the source holds several entries; their conditions need not be identical. Identical values can stand only once. Out of some 54,000 compounds screened, about 120 (0.22%) were called active. The inconclusive results got no clear call from the source; some entries with a clear call stand among them for comparison. Calls come from the whole dose curve; as a rule, active = well fitted inhibition curve with a large enough effect; inconclusive = small, poorly fitted or top-dose-only effect, or effect the other way; inactive = flat fitted curve, though single readings scatter. A potency beside an inconclusive call is a rough fit, not a confirmed value.

molecular target: Fumarate hydratase, mitochondrial (Homo sapiens) (UniProt P07954); assay: Identification of activators of human fumarate hydratase by quantitative high-throughput screening; conditions: FH coupled MDH/diaphorase resazurin fluorescence, 15 min; activity change, negative = inhibition: at 79.9 µM (top of the series); note: the screen sought activators but most active calls are inhibition curves; nearly all actives have a fitted effect of over 45% in size
% is set by controls: 0 for no effect and ±100 for the full control effect; potency is the fitted concentration of half-maximal effect; tags give direction and shape of the fitted curve.

UniProt P07954, sequence (P07954 whole entry, looked up): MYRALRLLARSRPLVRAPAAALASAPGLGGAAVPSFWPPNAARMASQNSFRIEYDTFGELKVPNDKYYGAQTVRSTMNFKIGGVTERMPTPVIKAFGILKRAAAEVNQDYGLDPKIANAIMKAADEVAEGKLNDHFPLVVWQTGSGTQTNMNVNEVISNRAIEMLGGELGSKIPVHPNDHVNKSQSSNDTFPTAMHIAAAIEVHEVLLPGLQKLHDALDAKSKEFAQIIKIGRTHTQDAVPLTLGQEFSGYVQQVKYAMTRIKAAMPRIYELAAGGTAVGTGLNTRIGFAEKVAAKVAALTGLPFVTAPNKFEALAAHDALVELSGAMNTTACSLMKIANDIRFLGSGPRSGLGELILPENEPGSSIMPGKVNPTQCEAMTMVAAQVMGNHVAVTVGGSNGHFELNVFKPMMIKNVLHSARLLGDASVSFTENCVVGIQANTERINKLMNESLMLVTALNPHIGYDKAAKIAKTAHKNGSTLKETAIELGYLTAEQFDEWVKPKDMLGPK

SMILES	activity change, negative = inhibition	Potency
COc1cccc(-c2noc(-c3cc4ccccc4oc3=O)n2)c1OC	inactive: 7.75%	–
Cc1noc(C)c1S(=O)(=O)N(CC(=O)Nc1ccc(C(F)(F)F)cc1)c1ccc(C(C)C)cc1	inactive: -22.5%	–
Cc1ccc(-n2ncc3c(Nc4ccc(Oc5ccccc5)cc4)ncnc32)cc1	–	inconclusive: 17.8 µM [inhibitor, single point]
CCCCCCSc1nc(N)c2c3c(sc2n1)CCCC3C (stereo not drawn)	–	inconclusive: 22.4 µM [inhibitor, partial curve]
CN1CCN(Cc2ccc(NC(=O)Nc3ccc(Oc4cc(NC(=O)C5CC5)ncn4)cc3)cc2C(F)(F)F)CC1	–	inactive
COc1ccc(CNc2nc(N(CCO)CCO)nc3c2ncn3C(C)C)cc1	inactive: -1.8%	–
Cc1ccc(NC(=O)c2nc(S(C)(=O)=O)ncc2N(Cc2ccco2)Cc2ccco2)cc1	–	inconclusive: 2.51 µM [inhibitor, full curve, poor fit]
COc1ccc(CCNC(=O)c2ccc3[nH]c(C)c(C)c3c2)cc1OC	–	inconclusive: 31.6 µM [inhibitor, single point]
CN1CCC(CNc2ccc3ncc(-c4cccc(OC(F)(F)F)c4)n3n2)CC1	–	inactive and inconclusive: 3.16 µM [activator, partial curve, poor fit]
Cc1ccc(C)c(N2CCN(C(=O)NCc3noc4ccccc34)CC2)c1	inactive: -7.24%	–
Cc1ccc2c(c1)N(C(=O)c1ccc(F)cc1)C(C)(C)CC2(C)c1ccccc1 (stereo not drawn)	–	inconclusive: 2.51 µM [inhibitor, partial curve, poor fit]
O=C(O)c1ccc(Nc2ncnc3scc(-c4ccccc4)c23)cc1	–	inconclusive: 1.12 µM [activator, single point]
CCc1ccc2nc(N(Cc3cccnc3)C(=O)Cc3ccccc3)sc2c1	inconclusive: -33.9% [inhibitor]	–
CCN(Cc1ccccc1)C(=O)Cn1c(=O)cc(C)c2c(C)nn(-c3cccc(F)c3)c21	–	inconclusive: 14.1 µM [inhibitor, partial curve]
O=C(O)Cc1nn(Cc2nc3cc(C(F)(F)F)ccc3s2)c(=O)c2nccnc12	–	inconclusive: 31.6 µM [inhibitor, partial curve]
CC(C)c1ccc(NC(=O)c2cc(S(=O)(=O)NCCc3ccccc3)ccc2F)cc1	–	inconclusive: 35.5 µM [inhibitor, single point]
COc1ccc(C(C)C)cc1S(=O)(=O)NCCc1c(C)[nH]c2c(Cl)cccc12	–	inconclusive: 39.8 µM [inhibitor, partial curve, poor fit]
CCOC(=O)C(Cc1ccccc1)NC(=O)Cn1nnc(-c2ccc(C)cc2)n1 (stereo not drawn)	inactive: -7.7%	–
CN(C)S(=O)(=O)N(CC(=O)NCCSCc1ccc(Cl)cc1Cl)c1ccccc1	–	inconclusive: 31.6 µM [inhibitor, single point]
Oc1ccc(C2CNCc3sccc32)cc1O (stereo not drawn)	–	active: 8.91 µM
Cc1ccc(NC(=O)Cn2cc(S(=O)(=O)Cc3ccccc3)c3ccccc32)cc1C	–	inconclusive: 12.6 µM [inhibitor, partial curve]

SMILES	activity change, negative = inhibition	Potency
CSc1nc(N)cc(Oc2ccc(-c3nc(Nc4cccc(C(F)(F)F)c4)n[nH]3)cc2)n1	–	inconclusive: 35.5 µM [inhibitor, single point]
CC(=O)c1ccc(NC(=O)CN2C(=O)c3cccnc3Sc3ccccc32)cc1	inactive: -31%	–
CCOc1ccc(NC(=O)CSc2nc3nc(C)c(Cc4ccccc4)c(C)n3n2)cc1	–	inconclusive: 31.6 µM [inhibitor, partial curve, poor fit]
Nc1ncnc2c([C@@H]3N[C@H](CO)[C@@H](O)[C@H]3O)c[nH]c12	–	inconclusive: 12.6 µM [activator, partial curve]
CCC1CCCCN1CCCNC(=O)c1cc2c(Cl)nc3ccc(C)cc3c2s1 (stereo not drawn)	inactive: -15.2%	–
Cc1cccc(-n2c(SCC(=O)Nc3ccccc3Cl)nc3n[nH]c(C)c3c2=N)c1	–	inconclusive: 28.2 µM [inhibitor, single point]
CCOc1ccc(Nc2c(S(=O)(=O)c3ccc(C)cc3)cnc3ccc(OC)cc23)cc1	–	inconclusive: 22.4 µM [inhibitor, single point]
CCc1ccc(S(=O)(=O)Nc2cc(-c3cn4ccccc4n3)ccc2C)cc1	–	inconclusive: 25.1 µM [inhibitor, single point]
COCCOC(=O)C1=C(C)NC(C)=C(C(=O)OC(C)C)C1c1cccc([N+](=O)[O-])c1 (stereo not drawn)	–	inconclusive: 35.5 µM [inhibitor, single point]
CCOC(=O)c1cccc(NC(=O)Cc2ccc(NC(=O)N3CCCCc4ccccc43)cc2)c1	–	inconclusive: 39.8 µM [inhibitor, single point]
CC(C)(C)c1ccc(C(=O)NCC(c2cccs2)S(=O)(=O)c2ccc(F)cc2)cc1 (stereo not drawn)	–	inconclusive: 25.1 µM [inhibitor, partial curve, poor fit]
CCCN1C(=O)c2[nH]nc(-c3ccccc3O)c2C1c1cccc(OCc2ccccc2)c1 (stereo not drawn)	–	inconclusive: 39.8 µM [inhibitor, single point]
CC1(C)CC=C(c2cnc3ccccc3c2)c2cc(C(=O)Nc3ccc(C(=O)O)cc3)ccc21	–	inconclusive: 35.5 µM [inhibitor, single point]
CCCOc1ccc(C(=O)N(Cc2cccs2)c2ccc(C)cc2)cc1	–	inconclusive: 22.4 µM [inhibitor, partial curve]
[N-]=[N+]=N[C@]1(CO)O[C@@H](n2ccc(=O)[nH]c2=O)[C@@H](O)[C@@H]1O	inactive: -16.7%	–
COc1ccc2nc(N(Cc3cccnc3)C(=O)C3COc4ccccc4O3)sc2c1 (stereo not drawn)	inconclusive: -34.1% [inhibitor]	–
CCOc1ccccc1CN1CCc2nc(N3CCN(c4ccccc4F)CC3)ncc2C1	inactive: -5.43%	–
Cc1ccccc1NS(=O)(=O)c1ccc2[nH]cc(C(=O)NC(C)c3ccccc3)c(=O)c2c1 (stereo not drawn)	–	active: 39.8 µM
COc1ccc(NC(=O)CN2CCCN(S(=O)(=O)c3ccc(Br)cc3)CC2)c(OC)c1	–	inconclusive: 17.8 µM [inhibitor, partial curve, poor fit]
COc1ccc(CNc2oc(-c3ccc(COc4ccc(Cl)cc4)o3)nc2C#N)cc1	–	inconclusive: 11.2 µM [inhibitor, partial curve]
CCN1CCN(CCCNC(=O)c2cc3c(=O)n(CC)c4ccccc4c3s2)CC1	–	inconclusive: 31.6 µM [inhibitor, partial curve]

SMILES	activity change, negative = inhibition	Potency
Cc1c(CNCc2ccc(OC(C)C)cc2)c(C(=O)O)c(C)n1Cc1ccc(Cl)cc1	–	inconclusive: 50.1 µM [inhibitor, single point]
COC(=O)C1=CO[C@@H](O[C@@H]2O[C@H](CO[C@@H]3O[C@H](COC(=O)/C=C/c4cc(OC)c(O)c(OC)c4)[C@@H](O)[C@H](O)[C@H]3O)[C@@H](O)[C@H](O)[C@H]2O)[C@@H]2C(CO)=CC[C@H]12	inactive: 0.677% [at 20.6 µM]	–
COc1ccc(-c2nc(SCC(=O)c3ccc(OC)c(Br)c3)n[nH]2)cc1	–	inconclusive: 12.6 µM [inhibitor, partial curve]
COc1cc(C(=O)NC2CCN(C)CC2)c(F)cc1Nc1ncc2c(n1)N(C1CCCC1)CC(F)(F)C(=O)N2C	inactive: -6.53%	–
CCc1ccccc1NC(=O)CSC1=Nc2ccccc2C2=NC(Cc3ccccc3)C(=O)N12 (stereo not drawn)	–	inconclusive: 28.2 µM [inhibitor, partial curve, poor fit]
CCOC(=O)N1CCc2c(sc(NCc3ccc(N(C)C)cc3)c2C(=O)Nc2ccc(OC)cc2)C1	–	inconclusive: 31.6 µM [inhibitor, partial curve, poor fit]
COc1ccc(NC(=O)CSc2nc(-c3cccs3)cc(C(F)(F)F)c2C#N)cc1	inactive: -15.7%	–
CCOc1cc(CNC(=O)c2ccc3c(c2)N(C)C(=O)C2CCCCN32)cc(OCC)c1OCC (stereo not drawn)	–	inconclusive: 50.1 µM [inhibitor, single point]
O=C(Nc1ccc(F)cc1F)c1cc2c(=O)n3ccccc3nc2s1	inactive: -5.49%	–
COCCNC(=O)c1cccc(Nc2nc3ccccc3n3nnnc23)c1	inactive: -2.66%	–
Cc1ccc(Cn2ccn(CC(=O)Nc3c(C)cc(C)cc3C)c(=O)c2=O)cc1	inactive: 6.58%	–
O=C(NCC(c1cccs1)S(=O)(=O)c1cccs1)c1ccc(Cl)cc1 (stereo not drawn)	inactive: -9.47%	–
Cn1cncc1[C@@](N)(c1ccc(Cl)cc1)c1ccc2c(c1)c(-c1cccc(Cl)c1)cc(=O)n2C	inactive: -1.93% [at 53.3 µM]	–
Cc1ccc(C(c2ccccc2)c2c(C)[nH]c3ccccc23)s1 (stereo not drawn)	–	inconclusive: 35.5 µM [inhibitor, partial curve]
Cc1ccc2nc(-c3c[nH]c4ccccc34)c(Nc3ccccc3C)n2c1	inactive: 2.22%	–
CC1Cc2cc(S(=O)(=O)N(C)c3ccc(Br)cc3)ccc2N1C(=O)C1CC1 (stereo not drawn)	–	inconclusive: 31.6 µM [inhibitor, single point]
O=C1C2=C(Nc3ccccc3SC2c2ccccc2C(F)(F)F)c2ccccc21 (stereo not drawn)	–	inconclusive: 35.5 µM [inhibitor, partial curve]
COc1cc2c(cc1OC)[C@@H]1C(=O)c3ccc4c(c3O[C@@H]1CO2)C=CC(C)(C)O4	–	inconclusive: 39.8 µM [inhibitor, partial curve, poor fit]
Cc1nc(-c2ccc(C)c(S(=O)(=O)N3CCC(C(=O)Nc4ccc(Cl)cc4)CC3)c2)no1	inactive: -24%	–
CCCCC(=O)OC1=C(C(=O)c2ccccc2)N(C)S(=O)(=O)c2ccccc21	–	inconclusive: 28.2 µM [inhibitor, partial curve, poor fit]
CCOc1ccc(NS(=O)(=O)c2ccc3[nH]cc(C(=O)NCc4ccccc4)c(=O)c3c2)cc1	inactive: -5.69%	–
